PubChem BioAssay AID651820 (National Center for Advancing Translational Sciences (NCATS), 2012)
“And” between values parts separate entries of the source, which are not always exact repeats. Identical values can stand only once. Hit rate of the full screen: of about 340,000 compounds, about 12,000 (3.5%) were called active. Inconclusive results, whose numbers are uncertain, are shown with a selection of clear calls. Calls come from the whole dose curve; as a rule, active = well fitted inhibition curve with a large enough effect; inconclusive = small, poorly fitted or top-dose-only effect, or another doubt; inactive = no such curve, though single readings can be large or run the other way. Potencies of inconclusive entries are left out as doubtful fits.

Test: qHTS Assay for Inhibitors of Hepatitis C Virus (HCV)
Conditions: Huh7.5.1 HCVcc-Cre (HCVcc is cell-culture hepatitis C virus) infection, luciferase reporter, 44 h; activity change, negative = inhibition: at 41.8 µM (top of the series) unless noted
In short: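 Antiviral activity was scored by luciferase reporter output from cells infected with HCVcc-Cre (~0.5 moi) in presence of compound, 44 h infection period, cells seeded 1,000/well 4 h prior.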
% is set by controls: 0 for no effect and ±100 for the full control effect; potency is the fitted concentration of half-maximal effect; tags give direction and shape of the fitted curve.

Row | SMILES | Potency | activity change, negative = inhibition
1 | CC(NC(=O)c1cccc(S(=O)(=O)N2CCc3ccccc32)c1)c1ccco1 (centres undefined) | inconclusive [inhibitor, single point] | 
2 | CCn1c2ccccc2c2cc(NC(=O)C(C)C)ccc21 | inconclusive [inhibitor, partial curve, poor fit] | 
3 | COc1cc(NC(=O)CSc2nc(C)cs2)cc(OC)c1 | inconclusive [inhibitor, single point] | 
4 | Cc1ncc(CO)c(CNc2ccc(Oc3ccccc3)cc2)c1O | active: 11.2 µM | 
5 | CCN(CC)c1nc(N2CCOCC2)c(C#N)c2c1CN(C)CC2 | inconclusive [inhibitor, single point] | 
6 | COC(=O)COc1ccc(S(=O)(=O)Nc2ccc3c(c2)OCCO3)cc1C | inactive | 
7 | COc1ccc(C(C(=O)NC(C)(C)C)N(C(=O)CCC(=O)Nc2cc(C)on2)c2ccc(C)c(C)c2)cc1 (centres undefined) | inconclusive [inhibitor, partial curve] | 
8 | Cc1ccc(NC(=S)N(CCCN2CCC(C)CC2)Cc2ccco2)cc1C | inconclusive [inhibitor, full curve, poor fit] | 
9 | CSc1cccc(NC(C)C(=O)NCc2ccccc2)c1 (centres undefined) | inactive | 
10 | O=C(COC(=O)c1ccccc1NCCO)Nc1cc(C(F)(F)F)ccc1N1CCOCC1 | inconclusive [inhibitor, single point] | 
11 | CCOC(=O)C1=C(C)NC(=O)NC1c1cc(Br)c(O)c(OC)c1 (centres undefined) | inactive | 
12 | COc1ccc(-n2ncc3c(N4CCCCC4)ncnc32)cc1 | inconclusive [inhibitor, partial curve] | 
13 | C/C(=N\NC(=O)Cc1ccc(Cl)c(Cl)c1)c1cccnc1 | inactive | 
14 | O=C(Nc1ccc(CN2CCOCC2)cc1)c1ccc(-c2ccc(Br)cc2)o1 | active: 25.1 µM and active: 8.91 µM | 
15 | COc1ccc(NC(=S)Nc2ccccn2)c(OC)c1 | active: 11.2 µM | 
16 | Cc1ccc(CNC(=O)c2cc(C3CC3)nc3c2cnn3C(C)C)cc1 | inconclusive [inhibitor, full curve] | 
17 | COCCNC(=S)NCCCNc1nc2cc3c(cc2cc1C#N)OCO3 | inconclusive [inhibitor, partial curve, poor fit] | 
18 | O=C(CCCN1C(=O)c2cccc3cccc(c23)C1=O)N1CCN(c2ccccc2)CC1 | inconclusive [inhibitor, partial curve] | 
19 | CC1=NC(Nc2nc(C)c3ccccc3n2)=NC(C)(C)C1 | inconclusive [inhibitor, single point] | 
20 | O=C(Nc1cccc(Cl)c1)Nc1csc([N+](=O)[O-])c1 |  | inconclusive: -85.3% [inhibitor]
21 | Nc1cc(=O)[nH]c(SCC(=O)Nc2cc(S(=O)(=O)N3CCOCC3)ccc2Cl)n1 | inactive | 
22 | CCOC(=O)c1c(S(=O)(=O)NCC(=O)Nc2ccccc2F)c(C)n(C)c1C | inactive | 
23 | COc1ccc([N+](=O)[O-])cc1NCc1cccnc1 | active: 7.94 µM | 

Row | SMILES | Potency | activity change, negative = inhibition
24 | COc1ccc([C@H]2CC(=O)C=C(c3ccc4ccn(C)c4c3)C2)cc1 | inconclusive [inhibitor, single point] | 
25 | C=C(C)C1CC=C(C)/C(=N/NC(=O)COc2ccc(C)cc2)C1 (centres undefined) | inactive | 
26 | COc1cc(CNC2CCCCC2)c(Br)cc1OC1CCCC1 | inconclusive [inhibitor, partial curve] | 
27 | CCOc1cc(C)cc2oc(=O)cc(-c3ccccc3)c12 | inconclusive [inhibitor, partial curve] | 
28 | COc1cccc(CNc2ncc(Br)cc2Br)c1O | inconclusive [inhibitor, partial curve, poor fit] | 
29 | COc1ccc(C(=O)c2coc3ccc(OC(C)=O)cc23)cc1 | inconclusive [inhibitor, single point] | 
30 | Cc1ccc(NC(=O)CN(c2ccc3c(c2)OCO3)S(=O)(=O)c2c(C)n[nH]c2C)cc1 | inconclusive [inhibitor, single point] | 
31 | COc1ccc(CNCc2cc(Cl)ccc2O)cc1 | inconclusive [inhibitor, single point] | 
32 | O=[N+]([O-])c1cccc(N/N=C/c2ccc(N3CCOCC3)cc2)c1 | inconclusive [inhibitor, partial curve] | 
33 | COc1ccc(OCC(=O)Nc2cc(-c3nn(C)c(=O)c4ccccc34)ccc2OC)cc1 | active: 8.91 µM | 
34 | CCOc1ccc2nc(SCC(=O)N(CC(C)C)c3c(N)n(Cc4ccccc4)c(=O)[nH]c3=O)[nH]c2c1 | inconclusive [inhibitor, single point] | 
35 | Cc1ccc(C)c(OCc2cc(C(=O)N3CCc4sccc4C3)no2)c1 | inconclusive [inhibitor, single point] | 
36 | COc1cccc(N2CCN(Cc3nc4scc(-c5ccccc5)c4c(=O)[nH]3)CC2)c1 | active: 12.6 µM | 
37 | Cc1[nH]c2ccc(Br)cc2c(=O)c1CN1CCCCCC1 | inactive | 
38 | COc1ccc(NC2CCCN(Cc3cccc4cnccc34)C2)cc1OC (centres undefined) | inconclusive [inhibitor, single point] | 
39 | CCNC(=S)/N=C(/Nc1ccccc1)Nc1nc(C)cc(C)n1 |  | inconclusive: -84% [inhibitor]
40 | CC1Cc2ccccc2N1C(=O)CSc1nnc(-c2ccc(S(=O)(=O)N3CCOCC3)cc2)n1C (centres undefined) | inconclusive [inhibitor, single point] | 
41 | O=c1[nH]c(Cc2ccccn2)nc2scc(-c3ccc(Cl)cc3)c12 | inconclusive [inhibitor, single point] | 
42 | COCCCn1c(SCc2nnc(-c3ccc(OC)c(OC)c3)o2)nc2ccccc2c1=O | inconclusive [inhibitor, single point] | 
43 | COC(=O)C1=C(c2ccc(F)cc2OCc2ccccc2)C[C@@H]2CC[C@H]1N2C(=O)NCc1cccc(OC)c1 | inconclusive [inhibitor, single point] | 
44 | CCC1CCCCN1CCCNC(=O)CSc1nc2nc(C)c(Cc3ccc(C)cc3)c(C)n2n1 (centres undefined) | inconclusive [inhibitor, single point] | 
45 | CCC(C)NC(=O)[C@H](CSCc1ccccc1)N1Cc2ccccc2C1=O (some centres undefined) | inactive | 
46 | O=[N+]([O-])c1cc(/C=N\Nc2nc(-c3ccccc3)cs2)ccc1O | inactive | 

Row | SMILES | Potency | activity change, negative = inhibition
47 | O=C(CSc1nc2ccc([N+](=O)[O-])cc2s1)c1ccc2ccccc2c1 | inactive | 
48 | c1ccc2nc3c(nc2c1)c1ccccc1n3CCN1CCOCC1 | inconclusive [inhibitor, single point] | 
49 | CCOc1ccc(CCNC(=O)CN2C(=O)NC3(CCCCCC3)C2=O)cc1OCC | inactive | 
50 | O=C(Nc1ccc(Cl)cn1)c1cccc(S(=O)(=O)N2CCOCC2)c1 | inactive | 
51 | COc1ccc(NC(=O)c2ccc(-c3ccc(C(C)=O)cc3)o2)cn1 | inconclusive [inhibitor, single point] | 
52 | Cn1c(CN2CCCC2)nc2cc(NC(=O)COc3ccc(Cl)cc3)ccc21 | inconclusive [inhibitor, partial curve] | 
53 | Cc1cc(NCCN2CCOCC2)n2ncc(-c3ccccc3)c2n1 | inconclusive [inhibitor, single point] | 
54 | COc1cccc(-c2nc(CS(=O)(=O)CC(=O)Nc3ccccc3Br)c(C)o2)c1 | inconclusive [inhibitor, partial curve] | 
55 | COC(CNC(=O)C(=O)Nc1ccc2c(c1)N(S(=O)(=O)c1cccs1)CCC2)OC | inconclusive [inhibitor, full curve, poor fit] | 
56 | CN=C(Nc1cc(Cl)ccc1Cl)SC1CC(=O)N(c2ccc(C(=O)OC)cc2)C1=O (centres undefined) | inconclusive [inhibitor, single point] | 
57 | COCCCNC(c1ccccc1)c1ccncc1 (centres undefined) | inactive | 
58 | CCOc1ccc(CCNC(=O)CCOc2cc(C)ccc2C)cc1OCC | inconclusive [inhibitor, partial curve] | 
59 | COC(=O)C(NS(=O)(=O)c1cccc(S(=O)(=O)NC(C(=O)OC)c2ccccc2)c1)c1ccccc1 (centres undefined) | inconclusive [inhibitor, single point] | 
60 | O=C(Nc1sc2c(c1C(=O)O)CCCCC2)c1ccccc1F | inactive | 
61 | COc1cc(N(C)C)ccc1C=c1c2ccccc2n2c1cc(-c1ccccc1)[n+]2C | active: 10 µM | 
62 | O=C(Nc1ccc(Cl)c(-c2nc3ccccc3[nH]2)c1)c1ccc2c(c1)OCO2 | inconclusive [inhibitor, single point] | 
63 | O=C(Nc1ccncc1)c1ccc2c(c1)OCCO2 | inconclusive [inhibitor, single point] | 
64 | CN(C)c1cc2c(c(N(C)C)c1)C(=O)c1ccccc1C2=O | inconclusive [inhibitor, full curve] | 
65 | COc1ccc(OC)c(-n2c(O)c(C=Nc3c(C)n(C)n(-c4ccccc4)c3=O)c(=O)[nH]c2=S)c1 | inactive | 
66 | COc1ccccc1NC(=O)CCc1nc(-c2ccccc2F)no1 | inactive | 
67 | COc1ccc(-n2c(-c3ccc(F)cc3)cnc2SCC(=O)NCc2ccco2)cc1 | inconclusive [inhibitor, partial curve] | 
68 | COc1ccccc1NC(=O)c1cnc(Nc2ccccc2OC)c2ccccc12 | inconclusive [inhibitor, full curve] | 
69 | CCC(C)NCCCCOc1ccc(Br)cc1 (centres undefined) | inconclusive [inhibitor, single point] | 
